Test results taken from PubChem BioAssay AID759 (NMMLSC, 2007).
The whole screen tested about 190,000 compounds, of which about 270 (0.14%) were called active. Inconclusive results, whose numbers are uncertain, are shown with a selection of clear calls.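 How the source made its calls: active means GTP binding activity at least 20% away from the 100% baseline, either lowered as inhibitor or raised as activator; inconclusive means flagged as likely green fluorescent, judged across all proteins in the well; inactive means the rest.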

Molecular target: GTPase HRas (Homo sapiens) (UniProt P01112)
Sequence of UniProt P01112 (P01112 whole entry, looked up): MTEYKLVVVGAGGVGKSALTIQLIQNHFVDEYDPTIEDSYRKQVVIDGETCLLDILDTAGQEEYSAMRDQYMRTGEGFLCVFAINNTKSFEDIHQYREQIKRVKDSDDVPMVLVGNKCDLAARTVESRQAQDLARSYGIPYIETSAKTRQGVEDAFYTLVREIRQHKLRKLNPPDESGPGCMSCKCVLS
Test: HRas wt fluorescent GTP binding changes, either direction – biochemical, wildtype, bead-based flow cytometry, multiplex, primary screen (AID 759);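 further: 0% = unlabeled GTP competition control and 100% = no-compound control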
Details: GST-Ras wt beads, Bodipy-FL-GTP binding, at 10 µM, actives lie on both sides

GTP binding activity, inactive:
COc1cccc(C(=O)NC(=S)Nn2cnnc2)c1OC 96%, NC(=O)C1(N2CCCCC2)CCN(C(=S)NC2CCCC2)CC1 95%, O=C(C(Cc1ccccc1)N1C(=O)C2C3C=CC(C3)C2C1=O)N1CCCCCC1 (centres undefined) 98%, CCN(CC)C(=O)Cn1c(=O)c2ccccc2n2c(=S)sc(-c3cccc(C)c3)c12 98%, Cc1nc2c(c3c1[nH]c1ccccc13)C(O)CC(C)(C)C2 (centres undefined) 98%, O=C(O)c1ccc(CSc2nnc(-c3cccnc3)n2-c2ccc(Br)cc2)cc1 97%, O=C(CSc1ccccc1C(=O)NCc1ccccc1)NC1CCCCCCC1 95%, CN1/C(=C\C=C(/C#N)C(=O)Nc2ccc(Cl)cc2)C(C)(C)c2ccccc21 105%, CC(C)Cc1csc(NC(=O)c2ccccc2Cl)c1C(=O)O 81%, Oc1ccccc1CNc1ccc(OC(F)(F)F)cc1 98%, CCCCCC(=O)Nc1ccc(-c2csc(N)n2)cc1 97%, N#CC(C#N)=C1C=CC=CN1/C(=C\c1ccccc1Cl)C(=O)c1ccccc1 86%, CCOC(=O)C(C)c1ccc2cc(OC)ccc2c1 (centres undefined) 97%, Fc1ccc(NC(=S)NNc2ncc(C(F)(F)F)cc2Cl)c(F)c1 94%, Cc1cccn2c(CN(C)C3CCCc4ccccc43)c(C(=O)N3CCOCC3)nc12 (centres undefined) 98%, CC(=O)Nc1ccc(/C=N/N2CCCCC2)cc1 97%, O=C(NCc1ccc2c(c1)OCO2)c1ccc(CSCc2cccc(Cl)c2)o1 82%, O=S(=O)([N-]c1nc2ccccc2nc1-[n+]1ccc(-c2ccncc2)cc1)c1ccccc1 91%, Cc1ccsc1C(=O)N1CCC(N2CCC(C(=O)NCC3CCCO3)CC2)CC1 (centres undefined) 95%, O=C(O)c1ccccc1C(=O)NNc1cccc(Cl)n1 95%, CCCCOC(=O)CSC(=S)N(C)Cc1cccs1 103%, COC(=O)c1ccccc1NC(=O)CSCC(=O)Nc1ccccc1OC 95%, Cc1nn(C(C)C(=O)NCC2CCCO2)c(C)c1[N+](=O)[O-] (centres undefined) 97%, O=C(COc1ccc(Cl)cc1)N1CCN(C(=O)c2cccs2)CC1 99%, CCCCCCC1CCC(c2nc(-c3ccncc3)no2)CC1 (centres undefined) 99%, CCn1cc(C(=O)N2CCN(c3ccccn3)CC2)c(=O)c2cc(S(=O)(=O)N(C)C3CCCCC3)ccc21 91%, CC(=O)C1(C)N(O)C(C)(C)C(c2cccs2)=[N+]1[O-] (centres undefined) 98%, Cc1ccc2sc(NNC(=O)c3cc(=O)c4ccccc4o3)nc2c1C 85%

GTP binding activity, inconclusive:
C=CCn1c(=O)c2ccccc2n2c(SCc3cc(=O)n4ccsc4n3)nnc12 110%, COc1ccc(-n2c(C)cc(/C=C3/SC(=S)N(C)C3=O)c2C)cc1 223%, O=C(CC(c1ccccc1)c1ccccc1O)NCCN1CCOCC1 (centres undefined) 102%, Cc1ccc(CN2C(=O)N/C(=C/c3ccc4c(c3)n(C)c(=O)n4C)C2=O)cc1 95%, Cc1ccc(OCc2nn3c(-c4ccco4)nnc3s2)cc1 102%, COc1cc(C=O)ccc1OCc1cccc(Br)c1 99%, COc1ccc(OCc2nc(N)nc(Nc3ccc(C)cc3)n2)cc1 106%, Cc1[nH]c(C)c(C(=O)O)c1CNC1CCCCC1C (centres undefined) 106%, COc1cccc(Oc2cncnc2-c2ccc(OC)cc2O)c1 94%, c1ccc(-n2nnnc2SCc2cn3ccccc3n2)cc1 104%, COc1ccc2c(c1OC)C(=O)N1c3ccccc3SC21 (centres undefined) 105%, COC(=O)c1ccccc1NC(=O)CSc1nnnn1-c1ccc(C)cc1C 94%, COc1cc(NC(=S)Nc2cccc(C)n2)cc(OC)c1OC 92%, COC(=O)c1cccc(C(=O)Nc2cnc3ccccc3c2)n1 90%, COc1ccc(C(=O)Nc2nnc(-c3cccs3)s2)cc1 107%, c1ccc2c(c1)[nH]c1nc3nncn3nc12 92%, Cc1cc(NC(=O)c2oc3ccccc3c2C)ccc1-n1cnnn1 152%, Cc1cc(C)c(S(=O)(=O)c2ccccc2C)c(OCC(C)(C)C)n1 98%, N#C/C(=N/O)c1nc(-c2ccc(F)cc2)cs1 103%, CCOC(=O)CCNC(=O)Nc1ccc2nc(C)n(Cc3ccc(Cl)cc3)c(=O)c2c1 102%, Cn1c(CCNC(=O)c2cccs2)nnc1SCC(=O)Nc1nc(-c2ccccc2)cs1 102%, CCn1c(NC(=S)Nc2ccccc2)nc2ccccc21 107%, CCCn1nc(Oc2nc(NCC)nc(NC(C)C)n2)ccc1=O 104%, COc1cccc(N2CCN(C3CCCC(C)C3)CC2)c1 (centres undefined) 103%, Clc1ccc(-c2noc(CN3CCN(c4ccccc4)CC3)n2)cc1 93%, COc1cc(NS(=O)(=O)c2ccc(NC(=O)/C(=C/c3ccccc3Cl)NC(=O)c3ccccc3)cc2)nc(OC)n1 95%, CN1CC(=O)N(CC(=O)Nc2ccc(Cl)c(C(F)(F)F)c2)C1=O 107%, O=C(Nc1nnc(-c2ccccc2)o1)c1ccc(Cl)cc1 87%, CCN(CC)S(=O)(=O)c1cccc(-c2nnc(SCC(=O)NC3CCCC3)n2N)c1 95%, O=C(Nc1ccc2c(c1)OCO2)c1cc2ncc(Br)cn2n1 95%, CCN(CC(=O)Nc1cccc(C#N)c1)CC(=O)Nc1cccc(OC)c1 89%, CCC(Sc1ccccc1C(=O)O)C(=O)O (centres undefined) 105%, O=C1c2ccccc2S(=O)(=O)N1CC(O)Cn1ccc2ccccc21 (centres undefined) 92%, Cn1c(CCN2CCOCC2)nc2cc(NC(=O)COc3ccc(Cl)cc3)ccc21 108%, COc1ccc(Nc2cc(Cl)nc(N)n2)cc1 95%, CN(C)C(=O)/C(=C\c1ccncc1)NC(=O)c1ccccc1 97%, O=C(N1CCCCC1)N1CCN(C(c2ccccc2)c2ccccc2)CC1 104%, N#CCCN(CCC#N)c1nncs1 108%, COc1ccc(-n2c(=S)[nH]c3cc(C(=O)NCCCN4CCCC4=O)ccc3c2=O)cc1 105%, COc1ccccc1NS(=O)(=O)c1cc(NC(=O)c2ccccc2F)ccc1N1CCOCC1 93%, CCSc1nnc(-c2cc(Br)ccc2N=Cc2c(C)[nH]n(-c3ccccc3)c2=O)c(=O)[nH]1 83%, Cc1cc(C)cc(-n2c(C)cc(/C=N\NC(=O)COc3cccc4cccnc34)c2C)c1 92%, O=C(Nc1ccccc1)C1CCCN1C(=O)Nc1ccccc1[N+](=O)[O-] (centres undefined) 95%, Cc1ccc(NC(=O)CN2C(=O)N/C(=C/c3cc(C)n(-c4cccc(C(=O)O)c4)c3C)C2=O)cc1 85%, CC(C)c1nc(-c2ccccc2)c(-c2ccccc2)[nH]1 104%, O=c1c2cccnc2[nH]c(=S)n1CCC1=CCCCC1 105%, O=C(NC1CCCc2ccccc21)C1CCC(CNS(=O)(=O)c2cccc3nsnc23)CC1 (centres undefined) 104%, CC(=O)c1c(C)nc(-c2ccccc2)n1O 103%, CCCCOc1ccc(C(=O)N/N=C/c2cn[nH]c2-c2ccc(OC)c(OC)c2)cc1 94%, Cc1ccc(CN(C(=O)Cn2nnc3ccccc32)C(C(=O)NCc2ccco2)c2cccs2)cc1 (centres undefined) 96%, C/C(CCc1ccc2c(c1)OCO2)=N\N=C1\NC(=O)CC(C(=O)Nc2ccccc2)S1 (centres undefined) 109%, CCOC(=O)c1c(NC(=O)COC(=O)Cn2c(C)nc3ccccc32)sc2c1CCCC2 104%, CCOC(=O)c1nn(-c2cccc(OC)c2)c2nc(Nc3ccccc3)cc(=O)n12 104%, O=C(Nc1cccc2nsnc12)c1ccc(F)cc1 102%, COc1ccc(CCNC(=O)Cn2nc(C(=O)O)c3ccccc3c2=O)cc1OC 95%, CN1C2CCC1/C(=C\c1ccccc1)C(=O)/C2=C\c1ccccc1 109%, Cc1sc2nc(-c3cccnc3)nc(Cl)c2c1-c1ccccc1 102%, COc1ccccc1-c1nnc(SCC(=O)N2CCOCC2)n1-c1ccccc1 103%, CCSc1nnc(-c2ccc(Cl)cc2)c2ccccc12 94%, Cc1ccc2cn[nH]c2c1N 88%

GTP binding activity, active:
COc1cc2ccccc2cc1C(=O)NC(=S)Nc1cccc(C(=O)O)c1 76%, COc1ccc(/C=N/Nc2ncnc3sc4c(c23)CCCC4)cc1O 71%, N=C1/C(=C\c2ccc(SCc3ccco3)o2)C(=O)N=C2SC=NN12 74%, O=C(O)c1cc([N+](=O)[O-])ccc1NCc1ccccc1Cl 125% [activator], Cn1nc(C(=O)Nc2cccnc2)c2ccccc2c1=O 74%, Cc1cc(NS(=O)(=O)c2ccc(Nc3nc(-c4sc(N)nc4C)cs3)cc2)no1 78%
